According to PMC12136788:
Some of the results follow.

T1: UNK ZnF1-3 (human, UniProt Q9C0B0 31-174)
T1 sequence: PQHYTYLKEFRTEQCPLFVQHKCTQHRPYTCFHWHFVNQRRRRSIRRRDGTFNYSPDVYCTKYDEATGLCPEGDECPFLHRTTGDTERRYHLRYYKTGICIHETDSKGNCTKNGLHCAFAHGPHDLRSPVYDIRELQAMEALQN

B1: chr5:64741823:64741824:+_ENSMUSG00000029174_ENSMUST00000119756|mus_hu|FALSE|FALSE (ssRNA)
RNA: GGGAGUUCUACAGUCCGACGAUCGAAAUAUCUCAGACCCCACAACUGCAGCUCACAUGCUAGCAAUACCUGGUAGGGUCUAAAAGGUGUCAGCUGUCCCAUAAAGCAUUUACCUACUAUGACUUUGAUCAACUGUACUUAUGGCAACAGAGGAUUGAGCAUCA
B2: chr4:41951345:41951346:+_ENSG00000109133_ENST00000513702|hu_mus|FALSE|FALSE (ssRNA)
RNA: GGGAGUUCUACAGUCCGACGAUCAAACAAGUUCCGACAAUAUGGAUUUCUUCUAGAGGAAUAUCGAAGAGUAAGAAAUCUAUAAUAUAUAAAAGGCUGGAGCAAACUUCCUUGGCCACUAAAGAGCAUAAAAACUGUAGCAGGCAACAGAGGAUUGAGCAUCA
B3: 114522497_114522721_1165_CDS_ENSMUSG00000031948_ENSMUST00000034426|mouse|control|control (ssRNA)
RNA: GGGAGUUCUACAGUCCGACGAUCUCGGAAGGGUGGGGUGAAGUCGACCUCGUAGGCUUGGCCUUCCGGCCCAUCUGGGUGGUAGGUGAUCUUGUAACUGCCUGUAAUGCUCUUCACCAUCCCUGACAGCAUCUUCUCUGUGAUCAACAGAGGAUUGAGCAUCA
B4: chr1:154963231:154963232:+_ENSMUSG00000042751_ENSMUST00000043313|mus_hu|FALSE|FALSE (ssRNA)
RNA: GGGAGUUCUACAGUCCGACGAUCCUUGGCCUUCUCUACUGGGUGUGGCCCUGAUGAACUCACUGAGUGCUGAGGCUGGCUACAAUGUCCUAUCAGAGGGGAAGUAAUACCACAGGAGCACAUCAAGACUACAAACAUAAAGAACAACAGAGGAUUGAGCAUCA
B5: chr2:9570881:9570882:+_ENSG00000119203_ENST00000238112|hu_mus|hu_hu_hu_mus_False|8_28 (ssRNA)
RNA: GGGAGUUCUACAGUCCGACGAUCACUUGUCUUCUGAAGGAACCAGGGCAGGGCUCCACAGUGAUCCAAAUGGAAAUGACUGAUCAACAGAAGGUCGAUCUCAGCUGGGUCAAUUAAGUCAAUGUAAGGAAGAGCAUCCAUUCCCAACAGAGGAUUGAGCAUCA
B6: chr8:95500983:95500984:-_ENSG00000164944_ENST00000437199|hu_hu|hu_hu_hu_mus_True|1_68 (ssRNA)
RNA: GGGAGUUCUACAGUCCGACGAUCAGAACACAUCUAUCGAGUAAAGGACCGUACAUGACGGCCUCUAACCACUGCCUCACUAACAAACUUUCCUCUCGAGCCUCCACUGCCGCUAUUUGUACUAGCCCAGGACGGUCCCAAGUCCAACAGAGGAUUGAGCAUCA
B7: chr2:128891733:128891734:+_ENSMUSG00000027394_ENSMUST00000035812|mus_mus|motif|central (ssRNA)
RNA: GGGAGUUCUACAGUCCGACGAUCCCUCAGCCUCAGCCCCGCUGUCGGUCUAAUUCCAGGGCCGCGCCUCCGGAUUACCCGGGUGUCUGCCCUGGGCGCCCGCGCCACCGCCCGAGUGGCGAGCGCCACCCGGACGCCGCGCCCCAACAGAGGAUUGAGCAUCA
B8: chr7:92027835:92027836:+_ENSG00000001629_ENST00000265742|hu_mus|FALSE|FALSE (ssRNA)
RNA: GGGAGUUCUACAGUCCGACGAUCAUUGGCACUGGGGUCCUGGCCAGCUGAGUCAAGGUCACUGGAAGAGGGACAGAAAUCACUUCUUGUCUCACUGAGAGGGCGUGAACUCAAAGUGUCAGUUGAAAAUGGGUCACUGUCUGCCAACAGAGGAUUGAGCAUCA
B9: chr18:34476965:34476966:+_ENSMUSG00000005871_ENSMUST00000115781|mus_mus|FALSE|FALSE (ssRNA)
RNA: GGGAGUUCUACAGUCCGACGAUCCAGUUUCCUCCUCAGGGUUGGGCUUGGGGCUUCUUUGAUGAAAGUAGACUGGCGUACUAAUGCAGGCCUUUCUGAUCUGUCUGAUUCACUUCCACUUGAUUUAGUUGAAGACAUUCUAGACAACAGAGGAUUGAGCAUCA
B10: chr17:1265283:1265284:-_ENSG00000108953_ENST00000571732|hu_hu|FALSE|FALSE (ssRNA)
RNA: GGGAGUUCUACAGUCCGACGAUCGUUAGCUGCUGGAAUGAGGUGUUUGUCCAGUACAUCCAGAAUGUCACAACAGAUUAACUUUAGCUCAGUCUCAACCAUUUGCCGAUAUUCCCGAAUCAUUUUUAGCUUGUCUUCUCCUCCCAACAGAGGAUUGAGCAUCA
B11: 29539073_29539193_618_CDS_ENSMUSG00000012535_ENSMUST00000012679|mouse|control|control (ssRNA)
RNA: GGGAGUUCUACAGUCCGACGAUCAGUUAGCAAUGAGUCCCUUAAAGAAGCAUGAGAGUCUGUGGGGAGCUCAUAAAAUGAGGUCUGAAUCUUCAUUUUCAUGGUCUGGGCAGCGAAAUAGCAUGAUUCCACAUCCUGUCGGAUCAACAGAGGAUUGAGCAUCA
B12: chr12:42180722:42180723:-_ENSMUSG00000036295_ENSMUST00000043884|mus_hu|mus_mus_mus_hu_True|8_108 (ssRNA)
RNA: GGGAGUUCUACAGUCCGACGAUCCUGUAGGAGCAGAAUCUGUGUGUUAGCUGGCAAUCUGGCUGGGAAAGUUAAAAGACCUAAAUCAUUACAAUCCACUGUAGAUGCUUCCAUAUAAAUGGAUCUGGGGGUAAACCAAGGCCUCAACAGAGGAUUGAGCAUCA
B13: chr1:163295886:163295887:+_ENSG00000143228_ENST00000271452|hu_hu|motif|central (ssRNA)
RNA: GGGAGUUCUACAGUCCGACGAUCGGUUUUUACCAUCAGCUCCUGUUAAGAUCUUAUUGCGAAUAUGAAUCACAAUCUCAGCGGCAUUAUAUCUGGGGAAAGACAAAGUUUCCAUCUUGGAAGUUUCCUGUUAAUCUCCCAGGCCAACAGAGGAUUGAGCAUCA
B14: chr2:37284132:37284133:-_ENSMUSG00000066798_ENSMUST00000053098|mus_mus|FALSE|FALSE (ssRNA)
RNA: GGGAGUUCUACAGUCCGACGAUCAUACAGAUUGGGUGGGGGGCAACACUACAUGUGCUGCAUUUUUAUAAAAUGUGUCUAAAAAAGUCAUUGAUUUGAUUACAGUAGAUUCUGCCGUUUGAGAUCAGGCCUAGAUAAUUUUUCCAACAGAGGAUUGAGCAUCA

What follows are binders tested against T1, UNK ZnF1-3 (assay: nsRBNS (natural sequence RNA bind-n-seq); RBNS binding buffer (assumed for nsRBNS): 25 mM Tris pH 7.5, 150 mM KCl, 3 mM MgCl2, 0.01% Triton X-100, 500 ug/ml BSA, 20 U/ml SUPERase-In, 4 C; UNK is unkempt and MSI1 is Musashi-1; names of the RNAs are library labels; protein concentration not given here; high values mean tight binding).
Binder B1 has a binding signal of 0.524 enrichment R.
B2 gave a binding signal of 2.07 enrichment R.
B3 showed a binding signal of 0.66 enrichment R.
In the case of B4, the binding signal is reported as 1.17 enrichment R.
B5 was tested, and the binding signal was 1.47 enrichment R.
In the case of B6, the binding signal is reported as 1.04 enrichment R.
Binder B7 has a binding signal of 0.864 enrichment R.
B8 gave a binding signal of 1.35 enrichment R.
For B9, the binding signal was 0.627 enrichment R.
B10 gave a binding signal of 0.903 enrichment R.
B11 showed a binding signal of 1.33 enrichment R.
B12 showed a binding signal of 1.04 enrichment R.
For B13, the binding signal was 0.922 enrichment R.
For B14, the binding signal was 1.49 enrichment R.
